From article PMC12040169 (PLOS Biology, 2025)
The list shows a part of the results.

The compounds below were run on T1, C. trachomatis L2/434/Bu expressing GFP (CTL2-GFP). Conditions: total inclusion area; 28.5 h, 10 µM; inhibitor.
T1 construct: L2/434/Bu GFP intracellular growth in HeLa cells
Parameters: species or system HeLa; C. trachomatis total inclusion area by high-content imaging, normalised to DMSO
How it was run: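 Bulk GFP and resorufin signals were read first. Wells were then fixed, stained with Hoechst and imaged to detect GFP inclusions and host nuclei. MICs followed the previously described calculation.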

Row | Compound | % of control remaining
1 | COc1ccc(C(NC(=O)C2CCN(CCn3cnc4c3c(=O)n(C)c(=O)n4C)CC2)c2ccco2)cc1 (stereo not drawn) [CBK148308] | 128.363
2 | CCN1CC2(CCN(CCOc3ccccc3)CC2)c2ccccc21 [CBK122705] | 94.4956
3 | CC(C)COc1ccc(-c2nonc2NC(=O)c2cccs2)cc1 [CBK299822] | 62.9161
4 | O=C(O)c1ccc(NS(=O)(=O)c2ccc3c(c2)C(=O)c2ccccc2C3=O)cc1 [CBK299828] | 61.3082
5 | O=C1NC2(CCCC2)N=C1c1ccc(Cl)cc1Cl [CBK288042] | 97.031
6 | O=C(Nc1ncnc2nc[nH]c12)NC1CCCCC1 [CBK022860] | 33.3313
7 | CCOC(=O)c1cn(CC#N)c2cc(F)c(F)cc2c1=O [CBK304211] | 85.9456
8 | CC(C)Cn1cnc(S(=O)(=O)N2CCN(CC(=O)NC3CC3)CC2)c1 [CBK304223] | 48.8815
9 | Cc1[nH]c2c(C(=O)Nc3cccc(CN4CCOC4=O)c3)cccc2c1C [CBK298338] | 92.5424
10 | CCc1ccc(-c2noc(CSc3n[nH]c(=O)n3CCCOC)n2)cc1 [CBK295656] | 70.1367
11 | CCC(=O)N(C)C(CO)c1cc(OC)ccc1Br (stereo not drawn) [CBK304156] | 77.4307
12 | CC(CC(=O)O)CC(=O)N1CCC2(CC1)NC(=O)Cc1ccccc12 (stereo not drawn) [CBK047281] | 92.7864
13 | Cn1c(CN2CCCC2)nc2cc(NC(=O)C3CCCCC3)ccc21 [CBK307418] | 72.7243
14 | Cc1cc2c(s1)c1cnn(CC(=O)NC3CC3)c(=O)c1n2C [CBK284246] | 81.9533
15 | Cc1cnc2[nH]c(C3CCN(C(=O)c4cnn(C)c4C)CC3)cc2c1 [CBK284684] | 88.2325
16 | COc1cc(NC(=O)CSc2nncn2C)c(OC)cc1Cl [CBK270307] | 95.6124
17 | O=C(c1cc2c(F)cccc2[nH]1)N1CCCCC1CCN1CCCC1 (stereo not drawn) [CBK281612] | 87.3836
18 | CS(=O)(=O)N1CC2(CCN(Cc3ccccc3)CC2)c2ccccc21 [CBK084003] | 71.9966
19 | COc1ccc(CCN2CCCN(c3nccc(OCc4ccc(Cl)c(Cl)c4)n3)CC2)cc1OC [CBK083965] | 90.6205
20 | O=C(Oc1ccc(/C=N/NC(=O)C2COc3ccccc3O2)cc1)c1cccnc1 (stereo not drawn) [CBK262811] | 97.3216
21 | COc1ccccc1-c1ccnc(N[C@H]2CO[C@H]3[C@@H]2OC[C@@H]3NC(=O)C2CCCCC2)n1 [CBK289529] | 108.366
22 | C[C@H](c1ccccc1)n1c(=O)[nH]c2ncc(-c3cccc4ccccc34)nc21 [CBK064241] | 74.3643
23 | c1ccc(C2=Nn3c(Cn4nnc5ccccc54)nnc3SC2)cc1 [CBK268232] | 105.293
24 | OC1(c2cccnc2)CCCC2CN(Cc3cc(F)ccc3F)CC21 (stereo not drawn) [CBK284513] | 78.4196

Row | Compound | % of control remaining
25 | CS(=O)(=O)c1ccc2nc(NC(=O)Cc3ccccc3)sc2c1 [CBK287339] | 107.038
26 | Oc1ccc(-n2ncc(-c3ccc(Cl)cc3)n2)cc1 [CBK112794] | 77.8871
27 | Cc1nc2ccccc2[nH]/c1=N/O [CBK018103] | 67.023
28 | Cc1ccc(S(=O)(=O)Nc2ccnc(-c3ccc(CN4C(=O)CSC4=O)cc3)n2)cc1 [CBK067925] | 127.7
29 | CCc1ccc(OCC(=O)Nc2ccc3oc(-c4ccc(F)cc4Cl)nc3c2)cc1 [CBK265010] | 138.823
30 | CCN(CC)C(=O)CN1C(=O)C2(Nc3ccccc3C(=O)N2c2ccc(F)cc2)c2ccccc21 (stereo not drawn) [CBK103751] | 85.7755
31 | CC(=O)NC[C@H]1CN(c2ccc(-c3nnc(C(C)O)s3)c(F)c2)C(=O)O1 (stereo partly drawn) [CBK017968] | 0.07773
32 | COc1ccc(-c2noc(CSc3nnc(-c4ccncc4)n3C)n2)cc1 [CBK268245] | 128.916
33 | C[C@H](c1ccccc1)n1c(=O)[nH]c2ncc(-c3ccco3)nc21 [CBK064415] | 92.8671
34 | O=C(O)CCNC(=O)c1ccc(NS(=O)(=O)c2ccc(C3CCCCC3)cc2)cc1 [CBK296991] | 82.0975
35 | CN(C)CCP(=O)(c1ccccc1)c1ccccc1 [CBK026596] | 87.66
36 | Nc1cccc(-c2cc(Nc3cccc(OCc4ccccc4)c3)ncn2)c1 [CBK090915] | 103.091
37 | Cn1nc(C(C)(C)C)cc1C(=O)N1CCC(N2C(=O)OCC2(C)C)CC1 [CBK044234] | 82.6309
38 | O=C(CN(c1ccccc1)S(=O)(=O)c1ccccc1[N+](=O)[O-])Nc1ccc(C(F)(F)F)cc1 [CBK267137] | 70.5942
39 | Cc1ccc(CNC(=O)Cn2cc(-c3ccc(CN4CCC(C)CC4)cc3)nn2)cc1 [CBK164706] | 46.7777
40 | COc1cc(C2NC(=O)N(CCc3ccccc3)C(c3ccccc3)=C2C(C)=O)ccc1O (stereo not drawn) [CBK269024] | 88.5257
41 | Cc1ccc(C)c(NS(=O)(=O)c2cc(C(=O)NCc3ccccn3)ccc2C)c1 [CBK269110] | 87.3938
42 | Cc1cc(Br)c(NC(=O)COc2ccc(/C=C(\C#N)C(N)=S)cc2)cc1C [CBK269014] | 92.7624
43 | NNC(=O)c1cc(-c2ccc(-c3ccccc3)cc2)nc2ccc(Br)cc12 [CBK261760] | 86.1816
44 | CCOc1cc(NC2CCN(C(=O)OC(C)(C)C)CC2)ncn1 [CBK306288] | 46.679
45 | CCCc1cc(C(N)=O)c(NC(=O)c2cc(-c3ccc(C)o3)nc3ccccc23)s1 [CBK267766C] | 74.0951
46 | COc1cccc(C2C(C(=O)c3ccc(Br)cc3)=C(O)C(=O)N2CCCN2CCOCC2)c1 (stereo not drawn) [CBK264862] | 76.5325
47 | COc1ccc(-c2cc(C(=O)N[C@H]3CCN(Cc4ccccc4)C3)cnc2-c2ccccc2)cn1 [CBK037605] | 62.1566
48 | CC(=O)c1ccc(-c2cc(C(=O)Nc3ccc4c(c3)OCCO4)cnc2-c2ccc(Cl)cc2)s1 [CBK036627] | 79.3084
